According to PubChem BioAssay AID1645882 (National Center for Advancing Translational Sciences (NCATS), 2021):
Where “and” joins values, the source holds several entries; their conditions need not be identical. Equal entries are not always repeated. Among all 16,000 compounds or so, about 120 (0.75%) were called active. Inconclusive results, whose numbers are uncertain, are shown with a selection of clear calls. Calls come from the whole dose curve; as a rule, active = well fitted inhibition curve with a large enough effect; inconclusive = small, poorly fitted or top-dose-only effect; inactive = no such curve, though single readings can be large or run the other way. A potency beside an inconclusive call is a rough fit, not a confirmed value.

molecular target: Rap guanine nucleotide exchange factor 3 (Homo sapiens) (UniProt O95398); experiment: Validation qHTS for antagonist of cAMP-regulated guanine nucleotide exchange factor 3 (EPAC1); details: EPAC1 Rap1B-BODIPY-GDP exchange, fluorescence; series mostly up to 150 µM; activity change, negative = inhibition: at the top concentration; note: nearly all actives have a fitted effect of over 75% in size
UniProt O95398, sequence (O95398 whole entry, looked up): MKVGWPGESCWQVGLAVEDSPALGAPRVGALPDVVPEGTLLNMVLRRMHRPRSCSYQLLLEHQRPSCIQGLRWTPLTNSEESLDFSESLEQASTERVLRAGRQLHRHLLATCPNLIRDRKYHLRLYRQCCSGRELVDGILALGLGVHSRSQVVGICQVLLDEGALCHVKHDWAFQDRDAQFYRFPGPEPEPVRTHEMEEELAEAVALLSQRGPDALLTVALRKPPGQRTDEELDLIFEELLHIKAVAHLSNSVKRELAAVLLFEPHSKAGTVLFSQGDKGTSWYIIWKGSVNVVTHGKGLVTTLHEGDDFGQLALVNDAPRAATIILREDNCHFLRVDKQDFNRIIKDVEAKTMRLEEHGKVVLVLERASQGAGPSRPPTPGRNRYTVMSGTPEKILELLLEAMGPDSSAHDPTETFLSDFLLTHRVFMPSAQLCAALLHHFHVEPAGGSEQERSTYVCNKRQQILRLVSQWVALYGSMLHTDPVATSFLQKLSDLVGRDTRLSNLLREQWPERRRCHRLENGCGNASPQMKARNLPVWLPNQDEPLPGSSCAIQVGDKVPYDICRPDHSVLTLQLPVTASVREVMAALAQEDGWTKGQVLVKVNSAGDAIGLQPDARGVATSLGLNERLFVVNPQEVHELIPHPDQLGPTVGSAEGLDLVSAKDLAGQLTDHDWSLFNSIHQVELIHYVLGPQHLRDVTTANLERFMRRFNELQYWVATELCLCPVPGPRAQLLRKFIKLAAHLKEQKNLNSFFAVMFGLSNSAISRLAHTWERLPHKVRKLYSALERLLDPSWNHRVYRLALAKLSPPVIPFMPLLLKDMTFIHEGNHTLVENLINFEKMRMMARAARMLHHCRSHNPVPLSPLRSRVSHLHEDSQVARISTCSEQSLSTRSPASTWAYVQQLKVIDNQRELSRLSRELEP
Source text: Assay Provider (PI): Xiaodong Cheng Ph.D.
The University of Texas Medical Branch, […], TX
In multi-cellular eukaryotic organisms, the effects of cAMP are transduced by two ubiquitously-expressed intracellular cAMP receptors, the classic protein kinase A/cAMP-dependent protein kinase (PKA/cAPK) and the more recently discovered exchange protein directly activated by cAMP/cAMP-regulated guanine nucleotide exchange factor (EPAC/cAMP-GEF). Both PKA and EPAC are ubiquitously expressed in all tissues, and an increase in intracellular cAMP levels will lead to the activation of both PKA and EPAC. Therefore, careful dissections of the individual role and relative contribution of EPAC and PKA within the overall cAMP signaling in various model systems are critical for further elucidating the mechanism of cAMP signaling. To date no EPAC-specific antagonists and agonist, as well as isoform-specific agonists have been reported, and developing EPAC-specific pharmacological probes to determine the physiological functions that EPAC play in the overall cAMP-mediated signaling remains a major challenge within the research field. Furthermore, identified regulators of EPAC may lead to new mechanism-based therapeutic strategies specifically targeting the EPAC / cAMP-signaling components as EPAC has been implicated to play important roles in major human pathological conditions such as diabetes, heart disease, and cancer.
This qHTS will be used to screen the Molecular Libraries Small Molecule Repository (MLSMR) as a concentration-titration series using the NCGC unique quantitative screening (qHTS) platform to find activators for EPAC1. In addition, this assay will also be used as a counterscreen for the EPAC2 qHTS. This fluorescent based assay is developed and validated for EPAC1 that measures exchange using EPAC effector Rap1 complex with BODIPY-GDP, a GDP analog with a tethered fluorophores. Activators are identified by monitoring the change in fluorescence signal as the exchanged free BODIPY-GDP has a reduced fluorescence compared to Rap1-bound BODIPY-GDP. Increase in signal (activation) is the desired outcome for the EPAC1 agonist while no activity in this assay is desired for the EPAC2 agonist counterscreen.
[1] de Rooij, J., Zwartkruis, F. J., Verheijen, M. H., Cool, R. H., Nijman, S. M., Wittinghofer, A., and Bos, J.L. (1998) Nature 396, 474-477.
Briefly, three uL of reagents (100 nM EPAC1, 250 nM RAP1B-BODIPY-GDP, 50 uM GDP) were dispensed into a 1536-well Greiner black solid-bottom medium binding assay plate. Controls and test compounds (23 nL) were transferred to the plate via a Kalypsys pin tool equipped with a 1536-pin array. The plates were centrifuged at 1,000 rpm for 15 seconds followed by 5 minute incubation at room temperature. The assay plates were read at 5 minute intervals for 30 minutes in the ViewLux plate reader using 480nm excitation and 540nm emission filters. The results were normalized to the […] positive control ATA and DMSO.
Potency is the fitted concentration of half-maximal effect; tags give direction and shape of the fitted curve.

SMILES	Potency	activity change, negative = inhibition
CNc1ccc2oc(C[C@H]3O[C@]4(CC[C@H]3C)O[C@H]([C@H](C)C(=O)c3ccc[nH]3)[C@H](C)C[C@H]4C)nc2c1C(=O)O	inconclusive: 44.7 µM [inhibitor, single point]	
O=S(=O)(O)C(F)(F)C(F)(F)C(F)(F)C(F)(F)C(F)(F)C(F)(F)C(F)(F)C(F)(F)F	active: 35.5 µM	
CCOC(=O)[C@]12Cc3ccsc3[C@H]1N(Cc1ccccc1)C(=O)c1ccccc12	inconclusive: 17.8 µM [inhibitor, partial curve]	
CC(CC(C#N)(c1ccccc1)c1ccccc1)N(C)C (configuration not stated)		inactive: 12.7% [at 320 µM]
N#CC(C#N)=Cc1ccc(O)c(O)c1	inconclusive: 50.1 µM [inhibitor, partial curve]	
CC(=O)C1CCC2C3CCC4CC(O)CCC4(C)C3CC(O)C12C (configuration not stated)	inconclusive: 31.6 µM [inhibitor, single point]	
CC(=O)c1c(O)c(C)c(O)c(Cc2c(O)c3c(c(C(=O)/C=C\c4ccccc4)c2O)OC(C)(C)C=C3)c1O	inconclusive: 56.2 µM [inhibitor, partial curve, poor fit]	
CCCCCCC(C)(C)c1ccc([C@@H]2C[C@H](O)CC[C@@H]2CCCO)c(O)c1	inconclusive: 22.4 µM [inhibitor, full curve]	
N#CC(C#N)=Cc1cc(O)c(O)c([N+](=O)[O-])c1	inconclusive: 44.7 µM [inhibitor, partial curve]	
CC1Cc2ccccc2CN1 (configuration not stated)		inactive: 13.3%
Clc1ccc(COC(Cn2ccnc2)c2ccc(Cl)cc2Cl)cc1 (configuration not stated)	inconclusive: 112 µM [inhibitor, partial curve, poor fit]	
CCC(C)C(=O)O[C@@H]1C[C@@]2(C)C(c3ccoc3)OC(=O)CC23OC2(C)O[C@@]14[C@@]1(C)C(CC(=O)OC)C5(C)CC1(O)C(O)(C5OC(=O)C1(C)OC1C)C(OC(C)=O)[C@@]34O2 (some centres not stated)	inconclusive: 44.7 µM [inhibitor, partial curve]	
N#CC(C#N)=Cc1cc(O)c(O)c(O)c1	inconclusive: 100 µM [inhibitor, partial curve]	
CCCCCCCCCCCCCCCC[N+](C)(C)C	inconclusive: 112 µM [inhibitor, single point]	
O=C(Oc1ccccc1)N1CCC2(CC1)CCN(C(c1ccccc1)c1ccccc1)CC2		inactive: 26.6%
C/C=C(\C)C(=O)OC1CC(OC(C)=O)[C@@]2(C(=O)OC)COC3C2[C@@]12CO[C@](O)(C(=O)OC)C2[C@](C)(C12OC1(C)C1CC2OC2OC=C[C@]21O)C3O (some centres not stated)	inconclusive: 112 µM [inhibitor, single point]	
CC1O[C@@H](OC2CC[C@@]3(C=O)C4CC[C@]5(C)C(C6=CC(=O)OC6)CC[C@@]5(O)C4CC[C@]3(O)C2)C(O)C(O)C1O (some centres not stated)	inconclusive: 126 µM [inhibitor, single point]	
CCCCCC[C@H]1C(=O)O[C@H](C)[C@H](NC(=O)c2cccc(NC=O)c2O)C(=O)O[C@@H](C)[C@@H]1OC(=O)CC(C)C	inconclusive: 44.7 µM [inhibitor, full curve]	
C/C=C(/C)C(=O)O[C@H]1C(C)=C2[C@H]([C@@H]1OC(=O)CCCCCCC)[C@@](C)(OC(C)=O)C[C@H](OC(=O)CCC)[C@@]1(O)[C@H]2OC(=O)[C@@]1(C)O	inconclusive: 15.8 µM [inhibitor, partial curve]	

SMILES	Potency	activity change, negative = inhibition
CC(C)(C)c1cc(O)ccc1O	inactive	
CCCCCCCCCCCCCCCC[n+]1ccccc1	inconclusive: 112 µM [inhibitor, single point]	
C=C(C)C1Cc2c(ccc3c2OC2COc4cc(OC)c(OC)cc4C2C3=O)O1 (configuration not stated)	inconclusive: 112 µM [inhibitor, single point]	
CC(C)(C)CC(C)(C)c1ccc(O)cc1	inconclusive: 31.6 µM [inhibitor, full curve] and inconclusive: 50.1 µM [inhibitor, full curve]	
CCC1/C=C/C=CCC(C)C(O)[C@@](C)(O)C(=O)C(C)C(O)C(C)C(=O)C(C)C(O)C(C)C=CC(=O)O[C@H]2C(C)C(CC1)O[C@]1(CCC(C)C(CC(C)O)O1)C2C (some centres not stated)	inconclusive: 31.6 µM [inhibitor, partial curve, poor fit]	
CC(=O)O.CC(=O)O.[Cd]		inactive: -7.38%
N#C/C(=C\c1ccc(O)c(O)c1)C(N)=S	inconclusive: 11.2 µM [inhibitor, full curve, poor fit] and active: 89.1 µM	
C(=C\c1ccccc1)/CN1CCN(CCOC(c2ccccc2)c2ccccc2)CC1	inconclusive: 11.2 µM [inhibitor, partial curve, poor fit]	
N#CC(C#N)=NNc1ccc(OC(F)(F)F)cc1	inconclusive: 5.62 µM [inhibitor, full curve, poor fit]	
CCC(C)C(=O)OC1C[C@@]2(C)C(c3ccoc3)OC(=O)CC23OC2(C)OC34C(OC(=O)C(C)C)[C@]3(O)C(OC(=O)C5(C)OC5C)[C@]5(C)CC3(O)[C@](C)(C5CC(=O)OC)C14O2 (some centres not stated)	inconclusive: 28.2 µM [inhibitor, full curve, poor fit]	
O=c1[nH]c2ccccc2n1C1CCN(CCCC(c2ccc(F)cc2)c2ccc(F)cc2)CC1	inconclusive: 35.5 µM [inhibitor, partial curve]	
COc1c(CC=C(C)C)c2c(c3oc(=O)c(-c4ccc(O)cc4)c(O)c13)C=CC(C)(C)O2	inconclusive: 126 µM [inhibitor, single point]	
O=c1c(O)c(-c2ccc(O)c(O)c2)oc2c(O)c(O)cc(O)c12	inconclusive: 39.8 µM [inhibitor, full curve]	
CCOC(=O)[C@]12Cc3cc(N(C)C)ccc3[C@H]1N(Cc1ccccc1)C(=O)c1ccccc12	inconclusive: 100 µM [inhibitor, partial curve, poor fit]	
C[C@@]12CCC(O)C[C@H]1CCC1C2CC[C@]2(C)C(=O)CCC12 (some centres not stated)		inactive: 17.4%
COc1cc2c(cc1OC)[C@@H]1C(=O)c3ccc(OC)c(CC=C(C)C)c3OC1CO2 (some centres not stated)	inconclusive: 20 µM [inhibitor, full curve, poor fit]	
C(=C/c1ccccc1)/CN1CCN(CCOC(c2ccccc2)c2ccccc2)CC1	inconclusive: 8.91 µM [inhibitor, full curve]	
c1ccc(CCCN2CCN(CCOC(c3ccccc3)c3ccccc3)CC2)cc1	inconclusive: 14.1 µM [inhibitor, partial curve]	
CCCN(CCC)c1c([N+](=O)[O-])cc(S(N)(=O)=O)cc1[N+](=O)[O-]	inconclusive: 63.1 µM [inhibitor, full curve, poor fit]	

SMILES	Potency	activity change, negative = inhibition
CCCCCc1cc(O)c2c(c1)OC(C)(C)[C@@H]1CCC(C)=C[C@@H]21	inconclusive: 22.4 µM [inhibitor, full curve]	
O=C(CCl)c1ccc(Oc2ccc(C(=O)CCl)cc2)cc1	inconclusive: 89.1 µM [inhibitor, partial curve]	
CC(C)=CCCC1(C)C=Cc2c(O)c3c(c(CC=C(C)C)c2O1)OC12C(=CC4CC1C(C)(C)OC2(C/C=C(/C)C(=O)O)C4O)C3=O (configuration not stated)	active: 63.1 µM	
C[C@@H](Cc1ccc(OCC(=O)O)cc1)NC[C@H](O)c1cccc(Cl)c1	inconclusive: 20 µM [inhibitor, single point]	
O=C1NC(=O)C(=O)C(=O)N1	inconclusive: 126 µM [inhibitor, single point]	
CCCN(CCC)[C@@H]1CCc2c(OC)cccc2[C@@H]1C	inconclusive: 15.8 µM [inhibitor, partial curve, poor fit]	
C[C@@]1(CO)[C@H](O)CC[C@@]2(C)[C@H]1CC[C@H]1C[C@@H]3C[C@@]12CC[C@]3(O)CO	inconclusive: 10 µM [inhibitor, full curve]	
CCCCCc1cc(O)c2c(c1)OC(C)(C)c1ccc(C)cc1-2	inconclusive: 1.26 µM [inhibitor, full curve, poor fit]	
CCc1cccc(C)c1N(C(=O)CCl)C(C)COC (configuration not stated)		inactive: 1.24%
Oc1c(Cl)c(Cl)c(Cl)c(Cl)c1Cl	inconclusive: 112 µM [inhibitor, single point]	
CCOC(=O)[C@]12Cc3cc(OC)ccc3[C@H]1N(Cc1ccccc1)C(=O)c1ccccc12	inconclusive: 25.1 µM [inhibitor, full curve]	
CC(C)C[C@H]1C(=O)N2CCC[C@H]2[C@]2(O)O[C@](NC(=O)[C@@H]3C[C@@H]4c5cccc6[nH]cc(c56)C[C@H]4N(C)C3)(C(C)C)C(=O)N12		inactive: 16.7%
CCCCC/C=C\C/C=C\C/C=C\C/C=C\CCCC(=O)Nc1ccc(O)cc1	inconclusive: 31.6 µM [inhibitor, full curve]	
COc1c2c(cc3c1OCO3)CC[N+](C)=C2	inconclusive: 4.47 µM [inhibitor, full curve, poor fit]	
C/C(=C\[C@@H](N)C(=O)O)CP(=O)(O)O	inconclusive: 28.2 µM [inhibitor, single point]	
COc1cc2c(cc1OC)C(C)NCC2 (configuration not stated)	inconclusive: 126 µM [inhibitor, single point]	
CCCCCCCCc1ccc(O)cc1	inconclusive: 39.8 µM [inhibitor, partial curve, poor fit]	
COP(=S)(OC)Oc1ccc(S(N)(=O)=O)cc1		inactive: 19.3%
CC(C)CCC(=O)O[C@H]1CC[C@H]2[C@@H]3CCC4=CC(=O)CC[C@]4(C)[C@H]3CC[C@]12C	inconclusive: 112 µM [inhibitor, partial curve, poor fit]	
